Consider 6 molecules from paper PMC12136788.

This is one part of the list.

To fix the notation:
T1: UNK ZnF1-3 (human, UniProt Q9C0B0 31-174)
T1 sequence: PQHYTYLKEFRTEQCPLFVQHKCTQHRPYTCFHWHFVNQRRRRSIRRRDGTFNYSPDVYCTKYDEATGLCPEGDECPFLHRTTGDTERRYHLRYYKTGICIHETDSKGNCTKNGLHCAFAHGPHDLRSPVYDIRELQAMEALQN

B1: chr14:76904568:76904569:+_ENSMUSG00000022010_ENSMUST00000022587|mus_mus|motif|central (ssRNA)
RNA: GGGAGUUCUACAGUCCGACGAUCGUUUUCGGUUCCCAGCAAAGACGACAAGAAAGAAAUGGAAAAAUGUCUCAGUUGGUAAACUCCGGGAUCCAUCGCCACUGGUCUACACCAUUGGGAUUUCAUGCAAUUGCAGCCAAAUUACAACAGAGGAUUGAGCAUCA
B2: chr1:225611761:225611762:-_ENSG00000143815_ENST00000272163|hu_mus|hu_hu_hu_mus_True|98_98 (ssRNA)
RNA: GGGAGUUCUACAGUCCGACGAUCCCAGGCCAUCGGCCUCUUACCACUUCACCCUCAACAAACUUCCUACUUGGCAUUUUCUAAAAUUAGUCUGGCCGCGCUCCGGCGGGAACUCCAGCCACUCCAGGACAGUCACCAGCAGCCCAACAGAGGAUUGAGCAUCA
B3: chr7:54825262:54825263:-_ENSG00000132432_ENST00000352861|hu_hu|hu_hu_hu_mus_False|28_88 (ssRNA)
RNA: GGGAGUUCUACAGUCCGACGAUCCUGCCGGCUGGGCUCCACAAACUUUACCUGAUCAUCCAUGUUUGUUGGAUGGCGGAUUGAGAGCGUAGAGACACGUAGCUCAGGGAGCUUGCUAGCCCAACGGAACCGGAAGCUGGCAACCAACAGAGGAUUGAGCAUCA
B4: chr11:87793471:87793472:-_ENSMUSG00000020483_ENSMUST00000020775|mus_mus|motif|central (ssRNA)
RNA: GGGAGUUCUACAGUCCGACGAUCAAUGGGCUGGGGAAAAAAAAAUAGCUAGAUUUCCCCACCCCUUACAGUGUCAACCCGGUGCGAGUUCUGAAUGUGAUUCAUAAGAAUCAGCAGCUCAAUUGGCAAUGACAACCCCCACCCCAACAGAGGAUUGAGCAUCA
B5: 59068870_59068990_946_CDS_ENSMUSG00000038206_ENSMUST00000040218|mouse|control|control (ssRNA)
RNA: GGGAGUUCUACAGUCCGACGAUCCUUGGUUAUAAGAGUUUCAAGGUACUCCCCACGCUCUUCAGGGGCAUGAAUAUGACGAAAAAAUUCUCUCAGUGCAUUCGGCAAGAACUGAUUUCUAAAAUUAUGCAAGGUUACAAGGUCCAACAGAGGAUUGAGCAUCA
B6: 31426640_31426760_2545_CDS_ENSG00000134644_ENST00000257075|human|control|control (ssRNA)
RNA: GGGAGUUCUACAGUCCGACGAUCUCGAAAAUCUUCCAAAAGCCUGCUCCUGCCAGAAGGCAUGACAUCAGACAUUCCAUAUCGCAAACGAGAGGAAGAGAAAAGAGUGCUGCUCGGGCUGAAGAGGCUGGAGGCGCUGCUUGCCAACAGAGGAUUGAGCAUCA

This assay has as its target T1, UNK ZnF1-3. Kind of assay: nsRBNS (natural sequence RNA bind-n-seq); RBNS binding buffer (assumed for nsRBNS): 25 mM Tris pH 7.5, 150 mM KCl, 3 mM MgCl2, 0.01% Triton X-100, 500 ug/ml BSA, 20 U/ml SUPERase-In, 4 C; UNK is unkempt and MSI1 is Musashi-1; names of the RNAs are library labels; protein concentration not given here; high values mean tight binding.
For the molecule B1, the binding signal worked out at 1.36 enrichment R.
With B2 the figure was 1.33 enrichment R; with B3, 0.992 enrichment R; with B4, 0.747 enrichment R.
With B5 the figure was 1.12 enrichment R; with B6, 1.66 enrichment R.
